# Source: PubChem BioAssay AID1460 (National Center for Advancing Translational Sciences (NCATS), 2008)
# Hit rate of the full screen: of about 270,000 compounds, about 5,800 (2.1%) were called active. The shares of active, inactive and inconclusive entries below differ from those in the screen. The call rests on the fitted dose curve; in most records, active means well fitted inhibition curve with a large enough effect; inconclusive means small, poorly fitted or top-dose-only effect; inactive means flat fitted curve, though single readings scatter. Where the call is inconclusive, the potency comes from a doubtful curve fit.
# Target: Microtubule-associated protein tau (Homo sapiens) (UniProt P10636)
# UniProt P10636, sequence (P10636 whole entry, looked up): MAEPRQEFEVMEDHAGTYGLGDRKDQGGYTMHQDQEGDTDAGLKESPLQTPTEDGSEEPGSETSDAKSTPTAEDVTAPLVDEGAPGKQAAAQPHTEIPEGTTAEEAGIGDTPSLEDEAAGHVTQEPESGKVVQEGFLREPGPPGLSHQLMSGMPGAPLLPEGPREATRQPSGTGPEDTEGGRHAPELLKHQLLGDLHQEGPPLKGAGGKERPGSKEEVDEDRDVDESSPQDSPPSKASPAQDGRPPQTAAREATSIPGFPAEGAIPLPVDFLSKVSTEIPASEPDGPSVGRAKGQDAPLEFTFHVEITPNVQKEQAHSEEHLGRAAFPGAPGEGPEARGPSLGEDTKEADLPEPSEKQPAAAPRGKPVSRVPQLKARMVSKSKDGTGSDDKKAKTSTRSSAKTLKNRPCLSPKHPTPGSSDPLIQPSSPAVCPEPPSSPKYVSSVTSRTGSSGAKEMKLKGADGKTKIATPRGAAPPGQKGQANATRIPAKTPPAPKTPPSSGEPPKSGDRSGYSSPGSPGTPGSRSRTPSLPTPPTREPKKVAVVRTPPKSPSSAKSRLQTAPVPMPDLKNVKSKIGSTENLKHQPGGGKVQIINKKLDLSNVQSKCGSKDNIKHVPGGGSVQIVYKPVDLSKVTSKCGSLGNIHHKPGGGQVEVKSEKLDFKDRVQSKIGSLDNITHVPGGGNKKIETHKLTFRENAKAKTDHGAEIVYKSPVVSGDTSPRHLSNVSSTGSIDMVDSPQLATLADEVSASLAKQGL
# Experiment: qHTS for Inhibitors of Tau Fibril Formation, Thioflavin T Binding; further: nearly all actives have a fitted effect of over 55% in size
# Details: recombinant tau K18 P301L (four-repeat tau fragment), heparin-induced fibrillization, ThT fluorescence; series mostly up to 57.4 µM
# How it was run: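 Heparin-induced fibrillization of the P301L-mutant K18 repeat-domain fragment of human tau was followed by ThT binding in quantitative high-throughput format.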
# On the % scale 0 is the no-effect control and ±100 the full control effect; potency means the concentration at half of the fitted maximal effect; tags describe the fitted curve by direction and shape.
SMILES,Potency,"activity, negative = inhibition"
[2H]c1c([2H])c([2H])c(C(=O)c2sc(N3CCCCCC3)nc2-c2ccccc2)c([2H])c1[2H],"inconclusive: 39.8 µM [inhibitor, partial curve, poor fit]",–
Cc1ccc(-c2cn(S(=O)(=O)c3cccc4nsnc34)nc2N)cc1,"inconclusive: 28.2 µM [inhibitor, single point]",–
Cc1ccc(-c2nc3ccccc3n2C)o1,"inconclusive: 20 µM [inhibitor, partial curve]",–
Cc1ccc(Cl)cc1NC(=O)N1CCN(C)c2ncccc21,"inconclusive: 28.2 µM [inhibitor, single point]",–
CC1=C(C#N)C(NC(=O)c2cccc(Cl)c2)(C(F)(F)F)C(=O)N1 (stereo not drawn),"inconclusive: 0.631 µM [activator, partial curve, poor fit]",–
COc1cccc(C(=O)O/N=C(\N)c2ccc([N+](=O)[O-])cc2)c1OC,"inconclusive: 3.98 µM [inhibitor, partial curve]",–
COc1ccc(N2CCN(c3cc(C)nc4nc(-c5ccc(C)cc5)nn34)CC2)cc1,"inconclusive: 22.4 µM [inhibitor, single point]",–
COc1ccccc1-c1noc(-c2ccc(N3CCN(c4ccccc4)CC3)c([N+](=O)[O-])c2)n1,"inconclusive: 22.4 µM [inhibitor, single point]",–
COC(=O)c1c(C)nc2ccccc2c1C(=O)O,inactive,–
CC(/C=N/N1CCN(c2ccc(C)cc2)CC1)=C\c1ccccc1,"inconclusive: 2 µM [inhibitor, full curve]",–
CCCCN1Cc2c(nc3cc(-c4ccco4)[nH]n3c2=O)C1=O,"inconclusive: 12.6 µM [inhibitor, single point]",–
COC(=O)C(C)Sc1ncnc2c1nnn2-c1ccc(F)cc1 (stereo not drawn),"inconclusive: 2.24 µM [inhibitor, full curve, poor fit]",–
O=C(C[n+]1ccc2c(c1)nnn2-c1ccccc1)c1ccc(Cl)cc1,"inconclusive: 17.8 µM [inhibitor, partial curve, poor fit]",–
O=C(Nc1ccccn1)c1ccc2ccccc2n1,inactive,–
CC(C)(C)Nc1c(-c2ccc(O)cc2)nc2ccc(Cl)cn12,"inconclusive: 14.1 µM [inhibitor, partial curve]",–
O=C(Nc1ccccc1C(=O)Nc1nnc(C(F)(F)F)s1)c1ccccc1,"inconclusive: 44.7 µM [inhibitor, single point]",–
Oc1cccc(CN2CCCCC2)c1,inactive,–
Cc1ccc(-c2c(C)sc(=NC(=O)c3ccco3)n2C)cc1,"inconclusive: 31.6 µM [inhibitor, partial curve]",–
CC(=O)Nc1cccc(NC(=O)c2cc(-c3cccnc3)nc3ccc(Br)cc23)c1,inactive,–
O=C(CCCCn1c(=O)c2ccccc2n(Cc2ccccc2F)c1=O)NC1CCN(Cc2ccccc2)CC1,"inconclusive: 39.8 µM [inhibitor, single point]",–
COc1ccc(OCCNC(=S)Nc2cccc3ccccc23)cc1,inactive,–
CNS(=O)(=O)c1ccc(OC)c(-c2nnc3c4ccccc4c(C)nn23)c1,inactive,–

SMILES,Potency,"activity, negative = inhibition"
CCCCCCNC(=O)C(C#N)c1nc2ccccc2nc1N1CCOCC1 (stereo not drawn),"inconclusive: 35.5 µM [activator, single point]",–
COc1ccc(/C=C2\N=C(SC)NC2=O)cc1,"inconclusive: 31.6 µM [inhibitor, partial curve, poor fit]",–
COC(=O)C1=C(C(=O)OC)[C@@H]2N(C)c3ccc(OC)cc3[C@@]23C[C@@H](C(=O)OC)N(S(=O)(=O)c2cccs2)C3=N1,–,inactive: -15.2% [at 11.5 µM]
Cc1[nH]n(-c2ccccc2)c(=O)c1C(C[N+](=O)[O-])c1ccc(Cl)cc1 (stereo not drawn),"inconclusive: 8.91 µM [inhibitor, partial curve]",–
COc1cc2c3c(c1)/C(=C1/SC(=S)NC1=O)C(=O)N3C(C)(C)C=C2C,"inconclusive: 5.62 µM [inhibitor, partial curve]",–
CCCCn1c(/C=N/Nc2nc3ccccc3[nH]2)nc2ccccc21,"inconclusive: 5.01 µM [inhibitor, full curve]",–
COc1ccccc1C(=O)Nc1cc2c(cc1N1CCCCC1)n(C)c(=O)n2C,"inconclusive: 7.94 µM [inhibitor, partial curve]",–
CC(=O)C1=C(C)OC(N)=C(C#N)C1c1ccco1 (stereo not drawn),"inconclusive: 22.4 µM [inhibitor, partial curve]",–
CCn1c(=O)c(C(=O)CN2CCc3ccccc32)c(N)n(Cc2ccccc2)c1=O,"inconclusive: 22.4 µM [inhibitor, single point]",–
COC(=O)c1ccc(NC(=O)COc2ccc(S(=O)(=O)N3CCCCC3)cc2)cc1,"inconclusive: 22.4 µM [inhibitor, partial curve]",–
Cc1nc2c(C#N)c[nH]n2c(=O)c1Cc1ccccc1,inactive,–
CC1CC(C)CN(CCCSc2ccccc2)C1 (stereo not drawn),inactive,–
CCc1nnc(NS(=O)(=O)c2ccc(Nc3ccc([N+](=O)[O-])c4nonc34)cc2)s1,active: 14.1 µM,–
Cc1ccc2nc(SCC(=O)c3cc(C)n(C)c3C)[nH]c2c1,"inconclusive: 22.4 µM [inhibitor, partial curve]",–
O=C(c1ccco1)N1CCN(Cc2ccc(Cl)cc2)CC1,inactive,–
Cc1ccc(NC(=S)NNC(=O)c2c(Cl)c(C)nn2C)cc1,"inconclusive: 10 µM [inhibitor, partial curve]",–
O=C(NCCN1C(=O)S/C(=C\c2cccnc2)C1=O)c1cccc(OC(F)F)c1,"inconclusive: 25.1 µM [inhibitor, partial curve]",–
Cn1cc(C(=O)Nc2ccc(F)c(Cl)c2)cn1,inactive,–
Cc1ccc(C)c(N2CCN(c3nc4ccccc4c4nc(CCn5nc(C)cc5C)nn34)CC2)c1,inactive,–
Cc1cccc(NC(=O)c2sc3nc4n(c(=O)c3c2C)N=C(c2ccc(F)cc2)CS4)c1C,"inconclusive: 1 µM [inhibitor, full curve, poor fit]",–
O=C1Nc2ccc(NS(=O)(=O)c3cccs3)c3cccc1c23,"inconclusive: 31.6 µM [inhibitor, single point]",–
